IFI data for 89 compounds are collected here from ChEMBL document CHEMBL1157539, “Thousands of chemical starting points for antimalarial lead identification” (Nature, 2010).

Whole data set: some 13,000 compounds, median “IFI” near 4, cut for the highest 2% near 17. Some of the results follow.

This test is described as follows: GSK_TCMDC: Inhibition Frequency Index (IFI). The number of non-kinase HTS assays where a compound showed > 50 % inhibition, expressed as a percentage of the number of such assays in which the compound was tested (-0 is zero). It counts as functional.
As to `CS(=O)(=O)c1ccccc1CNC(=O)c1ccc(-c2ccc(-c3nc4cc(C(F)(F)F)ccc4[nH]3)s2)cc1`, the IFI is 5.71%. Consider `COc1cccc(C(=O)N2CCOC(CCN3CCC(c4ccccc4)CC3)(c3ccc(Cl)c(Cl)c3)C2)c1` (centres undefined), for which the IFI was found to be 5.48%. Take `CS(=O)(=O)NCCCNCc1cccc(-c2csc(-c3nc4ccccc4[nH]3)c2)c1`: the IFI turned out to be 2%. In turn, `COc1ccc2nccc(N3CCC(NCCNCc4cc5c(cn4)OCCO5)C3)c2n1` (centres undefined) displayed an IFI of -0%. Compound `COc1ccc(C(=O)Nc2cc(Cl)c3c(c2)C2CCCN2CC3)cc1C(F)(F)F` (centres undefined) came in with an IFI of 7.19%.

For `Cc1cc(N[C@@H](C)C(=O)Nc2ccccc2)nc(NCCc2ccc(F)cc2)n1`, the IFI stood at 4.55%. Regarding `C=CCOC(=O)N1CCC(CNCc2cccc(-c3ccc(-c4nc5cc(C(F)(F)F)ccc5[nH]4)cc3)c2)C1` (centres undefined), the IFI was 9%. `CCNc1cc(C(=O)N[C@@H](Cc2ccccc2)[C@H](O)CNC(C)C)cc(N2CC(c3ccccc3)CCS2(=O)=O)c1` (some centres undefined) yielded an IFI of 0.74%. For `Cc1cc2nc(-c3ccc(C(=O)NCc4cccc(F)c4)cc3)[nH]c2cc1C`, the IFI was 0.76%. Consider `N=C(N)NN=Cc1c2ccccc2c(Cl)c2cc(Cl)ccc12`, for which the IFI came to 5.67%. `COc1ccc(CNC2CCN(C)CC2)cc1-c1ccc(S(=O)(=O)NCC2CCCO2)s1` (centres undefined): the IFI was found to be 1.98%.

`COc1ccc2[nH]c(C)cc(=NN=Cc3cc(OC)c(OC)cc3OC)c2c1` yielded an IFI of 1.33%. Compound `C(=Cc1ccccc1)C=NN=c1cc[nH]c2ccccc12` had an IFI of 2.1%. With `CCOc1cc(C(=O)N[C@@H](Cc2ccccc2)[C@H](O)CNCc2cc(OC)cc(OC)c2)cc(N2CCCCS2(=O)=O)c1`, the IFI was 5.97%. Compound `CN1CCN(c2nc(NCCNc3ccc([N+](=O)[O-])cc3)c3ccccc3n2)CC1` showed an IFI of 8.93%. Turning to `CN(C)CCCOc1ccc(CNCc2cccc(Oc3ccc(Cl)cc3)c2)cc1`, the IFI was determined as 9.33%. On to `CC(C)COc1ccc2ccccc2c1CNCCCCCCNCc1c(OCC(C)C)ccc2ccccc12`, for which the IFI was 22.9%. In turn, `CC(C)COc1ccc(Cl)cc1Cc1ccc(-c2nc3ccc(Cl)cc3[nH]2)o1` came in with an IFI of 19.1%. In turn, `CN(C)c1ccc(C(c2ccc(N(C)C)cc2)c2cc([N+](=O)[O-])ccc2Cl)cc1` returned an IFI of 1.47%. The compound `CCCN(Cc1nnc(-c2cccs2)o1)C(=O)CSc1nnnn1-c1cc(C)cc(C)c1` showed an IFI of 4.23%. The compound `CN(C)CCCOc1ccc(CN2CC[C@H](NC(=O)c3ccc(Cl)c(Cl)c3)C2)c2ccccc12` showed an IFI of 8%. In turn, `COc1cc(Br)c(NC(=O)Nc2ccc(C(F)(F)F)c(O[C@@H]3CCN(C)C3)c2)cc1OC` displayed an IFI of 3.08%. `CS(=O)(=O)c1ccc(CCNCc2ccc(-c3ccc(CN(C(=O)c4ccco4)C4CCN(Cc5ccccc5)CC4)cc3)nc2)cc1` registered an IFI of 5.63%.

The compound `COc1ccc(N2CCN(CCCCNC(=O)c3ccc(NC(=O)c4cccc(Cl)c4)cc3)CC2)c(OC)c1` gave an IFI of 3.57%.

For `CC[C@H](NC(=O)c1c(CN2CCC(N3CCCCC3)CC2)c(-c2ccccc2)nc2cc(O)ccc12)c1ccccc1`, the IFI amounted to 1.43%. On to `Cc1nc2c(c(C)nn2C(C)(C)C)c(C)c1CCC(=O)Nc1ccc(CN2CCCC2)cc1`, for which the IFI amounted to 2.83%.

For `NC(=O)C1Cc2ccccc2CN1CC(=O)Nc1ccccc1Sc1ccccc1` (centres undefined), the IFI is -0%.

In turn, `Brc1cc2c(cc1C=NNc1nc(=Nc3ccccc3)[nH]c(=Nc3ccccc3)[nH]1)OCO2` showed an IFI of 2.21%. `COc1cc(C(=O)N2CCOC(CCN3CCc4c(c5ccccc5n4C)C3)(c3ccc(Cl)c(Cl)c3)C2)cc(OC)c1OC` (centres undefined) came in with an IFI of 8.16%.

For `CC(C)Sc1ccc(Cl)cc1CON1C(=N)N=C(N)NC1(C)C`, the IFI amounted to 7.52%. With `Cc1cc(=NN=Cc2cccc(Cl)c2)c2cc(F)ccc2[nH]1` the figure was -0%.

The compound `COc1cc(OCCCCCCON2C(=N)N=C(N)NC2(C)C)cc(OC)c1OC` showed an IFI of 5.04%.

Regarding `CCCC(C)Nc1nc(C)cc(N[C@@H](CC(C)C)C(=O)NCc2ccc(C)cc2)n1` (some centres undefined), the IFI worked out at 17.1%.

In the case of `Cc1cccc2nc(-c3cccc(-c4ccc(NC(=O)C(C)CN5CCN(C)CC5)cc4)c3)[nH]c12` (centres undefined), the IFI was found to be 2.75%. `COc1ccc2nc(C)cc(Nc3ccc(Oc4ccc5ccccc5c4)c(Cl)c3)c2c1` returned an IFI of 5.93%. Regarding `COc1ccc2nccc([C@H](O)CN3CCC(NCc4nc5cccc(F)c5[nH]4)CC3)c2c1`, the IFI is 2.27%. As for `COc1cc(-c2cc3cc(Cl)c(Cl)cc3[nH]2)ccc1C(=O)NCCC1CCCN1C` (centres undefined), the figure is 4.96%.

Turning to `O=C(NC1CCN(c2ccc(F)cc2[N+](=O)[O-])CC1)c1cccs1`, the IFI is -0%. On to `COc1cc(F)c2ncc(Cl)c(CCN3CCC(NCc4ccc5c(n4)NC(=O)CS5)CC3)c2c1`, for which the IFI was found to be 5.04%. In turn, `COc1cccc2cc(C(=O)N[C@@H](CC(C)C)C(=O)NC(/C=N/NC(=O)c3ccccc3)CCc3ccccc3)oc12` (some centres undefined) showed an IFI of 5.36%. Compound `CCC(CC)(Cc1ccccc1)NC(=O)[C@H](Cc1ccc(OC)c(OC)c1)Nc1ccc(C#N)c2ccccc12` had an IFI of 0.94%.

For `CC(C)C[C@H](NC(=O)c1cccc(F)c1)C(=O)N[C@H](/C=N/NC(=O)c1ccccc1)CCc1ccccc1`, the IFI came out at 5.41%.

As for `O=C(/C=C/c1ccc(Cl)c(Cl)c1)N1CCN(C(=O)Nc2ccc(F)c(Cl)c2)CC1`, the IFI worked out at 15.2%. With `O=c1c2c([nH]c3cc(Cl)ccc13)CCCC2` the figure was 0%. In turn, `O=S(=O)(Nc1cccc(CCN2CCC(N3CCCCC3)CC2)c1)c1ccc(Oc2ccccc2)nc1` returned an IFI of 1.59%. In turn, `O=C(NC1CCC(N2CCC(c3nc4ccccc4s3)CC2)CC1)c1cc2ccccc2[nH]1` (centres undefined) came in with an IFI of 5.88%. With `CCCOc1cc(O)c(-c2[nH]nc(C)c2Oc2ccccc2)cc1CC`, the IFI came out at 2.96%.

Take `CCOc1cc2c(cc1OCC)C(c1ccc(O)c(Cl)c1)NCC2` (centres undefined): the IFI was found to be 2.25%. With `CC(C)Cn1c(Sc2ccc(C#N)c([N+](=O)[O-])c2)nnc1-c1ccccc1` the figure was 2.82%; with `COc1cc(Cn2ccc3c4c(N)nc(N)nc4ccc32)cc(OC)c1OC`, 4.23%. As for `COc1ccc2nc(C)cc(Nc3ccc(Oc4ccc(Br)c5ccccc45)c(Cl)c3)c2c1`, the figure is 8.47%; as for `Cc1cc(NCCc2ccccc2)nc(N/C(=N/CC(=O)OC(C)(C)C)Nc2ccc(C(F)(F)F)cc2)n1`, 4.55%; as for `O=C(NCCCN1CCOCC1)c1csc(Nc2ccc(Cl)c(Cl)c2)n1`, 0.69%.

In the case of `c1ccc2sc(Sc3ncnc4sccc34)nc2c1`, the IFI turned out to be 4.88%.

On to `CN1CCCN(Cc2ccc(-c3cccc(NC(=O)c4cccc(F)c4)c3)cc2)CC1`, for which the IFI turned out to be 2.94%.

`Cc1ccc(C(=O)Nc2ccc(Nc3ccnc4cc(-c5nccs5)ccc34)cc2O)cc1` returned an IFI of 9.66%. Compound `Cc1cc(O)nc(NC#N)n1` gave an IFI of 0%. In the case of `Cc1cc(Nc2ccc(Cl)cc2)n2nc(C(F)(F)F)nc2n1`, the IFI was 1.98%. With `Cc1cccc2nc(-c3ccc(-c4cccc(NC(=O)NCc5ccc(F)cc5)c4)cc3)[nH]c12` the figure was 10.2%; with `O=C1OC2(CN1CC1CCN(Cc3ccc(O)cc3Cl)C1)c1ccccc1-c1ccccc12` (centres undefined), 9.23%. With `COc1cc(NC(=O)/C=C/c2ccccc2OC(F)(F)F)cc(OCCN2CCN(CCN3CCOCC3)CC2)c1` the figure was 0.72%; with `O=C(NCCCCN1CCN(c2nsc3ccccc23)CC1)c1ccccc1C(=O)NCCCCN1CCN(c2nsc3ccccc23)CC1`, 6.87%. Take `Fc1cc(Cl)ccc1Nc1ccnc2cc(-c3ccc(CN4CCSCC4)o3)ccc12`: the IFI was found to be 6.43%.

As for `COc1ccc(NC(=O)Nc2ccc(-c3cccc(-c4nc5ccccc5[nH]4)c3)cc2)cc1`, the IFI came to 3.03%.

The compound `CC1(C)NC(N)=NC(=N)N1OCCSCCON1C(=N)N=C(N)NC1(C)C` came in with an IFI of 1.43%. Take `CC(C)(C)Nc1nc(Nc2cccc([N+](=O)[O-])c2)nc(-n2ccnc2)n1`: the IFI stood at 2.84%.

`O=S(=O)(NCCN1CCCC1)c1ccc(-c2cccc(CNC3Cc4ccccc4C3)c2)s1`: the IFI is 7.02%. As for `COC(=O)c1cc(OC2CCOC2=O)cc2c1OC(C)(C)O2` (centres undefined), the figure is 2.29%; as for `COc1cc2c(cc1S(=O)(=O)c1ccc(NC(=O)c3cccc(C(F)(F)F)c3)cc1)CCN(C)CC2`, 3.51%; as for `O=c1nc(NCCCNCc2cc3c(Cl)cc(Cl)cc3[nH]2)[nH]c2ccsc12`, 12.8%. `Nc1c(I)cc(C(=O)Nc2ccc3nc4c(c(N)c3c2)CCCC4)cc1I` displayed an IFI of 22.8%. With `N#Cc1ccc(-c2ccc(C(=O)NCCCCN3CCC(c4ccc5c(c4OCC(N)=O)CCCC5)CC3)nc2)cc1` the figure was 3.1%. Regarding `O=C(/C=C/c1ccc(F)cc1)NC1CCC(CCN2CCc3ccccc3CC2)CC1` (centres undefined), the IFI came out at 6.06%. `Cc1ccc(O)c(C(=O)c2cnc3c(c2)c(-c2ccc(F)cc2)c(C#N)c(=O)n3C)c1` displayed an IFI of 4.31%.

`CCNC(=O)N1CCN(c2nc(-c3ccccc3)nc(COC)c2Cc2ccc(C)cc2)CC1` gave an IFI of -0%. `CCc1c(C)nc(-n2nc(C)cc2NC(=O)c2ccc(OC)cc2OC)[nH]c1=O` had an IFI of 11.5%.

As for `CCCCCCCN1CCC(NC(=O)Nc2ccnc3ccc(OC)cc23)C(C(=O)OCC)C1` (centres undefined), the IFI was found to be 2.17%. The compound `O=C(Nc1ccc(-c2csc(-c3nc4ccccc4[nH]3)c2)cc1)Nc1ccc(Cl)c(Cl)c1` yielded an IFI of 5%. As for `CN1CCN(CC(=O)Nc2ccc(-c3cccc(-c4nc5cc(C(F)(F)F)ccc5[nH]4)c3)cc2)CC1`, the figure is 2.65%; as for `CN(CCCc1c[nH]c2ccccc12)CCC1CCC(NC(=O)/C=C/c2ccc(Cl)c(Cl)c2)CC1` (centres undefined), 7.09%; as for `CCCCOc1cc2c(cc1OCC)C(C=Cc1ccc(Cl)cc1Cl)=NCC2`, 6.67%. Take `O=C(NC1CCN(CCCc2ccccc2)CC1)c1ccc(-c2cccc(C(F)(F)F)c2)s1`: the IFI was 17.2%. `CN(C)Cc1cccc(-c2ccc(NC(=O)c3ccc4c(=O)n(CCN5CCCCC5)cnc4c3)cc2)c1` gave an IFI of 3.96%. Compound `CC(=NNC(S)=NC(c1ccccc1)c1ccccc1)c1ccccn1` displayed an IFI of 5.88%. In turn, `CS(=O)(=O)c1ccc2c(c1)CCN(CCC1CCC(NC(=O)C(=Cc3cccc(C#N)c3)c3ccc(-c4ccccc4)cc3)CC1)CC2` (centres undefined) registered an IFI of 7.59%.

Consider `O=C(O)c1cccc2c(-c3ccncc3)cccc12`, for which the IFI was -0%. `FC(F)(F)c1ccc2c(C=Cc3ccncc3)c[nH]c2c1` came in with an IFI of 1.48%. With `O=C(Nc1cccc(-c2ccc(-c3nc4ccccc4[nH]3)cc2)c1)c1cnn2cccnc12` the figure was 2.86%; with `C#CCCOc1ccc2ccccc2c1CNCCCCCCNCc1c(OCCC#C)ccc2ccccc12`, 12.8%.
